Measured values taken from PubChem BioAssay AID2546 (National Center for Advancing Translational Sciences (NCATS), 2010).
About 11,000 (3.5%) of roughly 310,000 compounds were called active. Inconclusive results, whose numbers are uncertain, are shown with a selection of clear calls. The call rests on the fitted dose curve; in most records, active means well fitted inhibition curve with a large enough effect; inconclusive means small, poorly fitted or top-dose-only effect, or effect the other way; inactive means flat fitted curve, though single readings scatter. No potency is given beside an inconclusive call; the fits are too rough.
Potency means the concentration at half of the fitted maximal effect; tags describe the fitted curve by direction and shape.

Assay: VP16 counterscreen qHTS for inhibitors of ROR gamma transcriptional activity;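 further: Gal4-VP16 expression switched on by copper sulfate through the metallothionein promoter; nearly all actives have a fitted effect of over 50% in size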
Details: Drosophila S2 Gal4-VP16 UAS-luciferase, luminescence, 20 h; series mostly up to 53.6 µM
In the case of `CCC(Nc1ncnc2ccc(-c3c(C)noc3C)cc12)c1ccccc1` (stereo unspecified), the Potency is reported as inconclusive [inhibitor, single point].
In the case of `O=C(CNc1ccc(F)cc1)N/N=C/c1c(O)ccc2ccccc12`, the Potency is reported as active: 2.82 µM.
For `Cc1cc(C)n(Cc2ccc(NC(=O)c3ccc(COc4ccccc4Br)cc3)cc2)n1`, the Potency was inconclusive [inhibitor, single point].
In the case of `O=C(CN1CCN(S(=O)(=O)c2ccccc2)CC1)Nc1cccc(C(F)(F)F)c1`, the Potency is reported as inconclusive [inhibitor, single point].
For `O=c1oc2ccccc2cc1-c1cn2cccnc2n1`, the Potency was inconclusive [inhibitor, single point].
With `COc1cc(CN2C(=S)NC(C)(C)CC2(C)O)cc(OC)c1` (stereo unspecified) the Potency was active: 11.2 µM.
For `COCCNC(=O)/C(C#N)=C/c1ccc(N2CCOCC2)o1`, the Potency was inconclusive [activator, single point].
For `CCOc1ccccc1N1CCN(CC(O)COCc2cccs2)CC1` (stereo unspecified), the Potency was inconclusive [activator, full curve].
With `O=c1oc2c(-c3cccc(F)c3)cc(O)cc2s1` the Potency was inconclusive [inhibitor, single point].
For `O=c1[nH][nH]c(=S)n1C1CCCCC1`, the Potency was inconclusive [inhibitor, single point].
In the case of `COc1ccc(CC(=O)N2CCN(c3ccc(F)cc3)CC2)cc1`, the Potency is reported as “inactive”.
With `CCOc1ccc(CNc2ccc(N3CCN(Cc4ccccc4)CC3)cc2)cc1` the Potency was “inactive”.
With `COc1ccc(OC)c(S(=O)(=O)N2CCCC(C)C2)c1` (stereo unspecified) the Potency was “inactive”.
For `COc1ccc(NC(=O)NNC(=O)c2ccc3ccccc3c2)cc1OC`, the Potency was “inactive”.
For `Cc1ccc(NC(=S)N/N=C2/CCCc3c(C)cc(C)cc32)cc1`, the Potency was inconclusive [inhibitor, partial curve, poor fit].
In the case of `CC(=O)c1ccc(OCCCCOc2ccc(C(C)=O)cc2)cc1`, the Potency is reported as “inactive”.
For `CCC(C)Nc1nc(-c2c[nH]c3ccccc23)cs1` (stereo unspecified), the Potency was inconclusive [inhibitor, single point].
For `CC(=O)c1ccc(NC(=O)Nc2ccccc2)cc1`, the Potency was inconclusive [inhibitor, full curve, poor fit].
In the case of `CCNC(=O)n1nccc1C(C)Oc1ccc(Cl)cc1` (stereo unspecified), the Potency is reported as “inactive”.
With `O=C(CSc1ccc(Cl)cc1)Nc1ccc(-c2nc3ccccc3[nH]2)cc1` the Potency was inconclusive [inhibitor, single point].
For `CN1CCc2c(sc(NC(=O)c3ccc4ccccc4c3)c2C(N)=O)C1`, the Potency was inconclusive [inhibitor, single point].
With `Cc1ccc(C2=CC(C)(c3ccc(C)cc3)Nc3nc(C(F)(F)F)nn32)cc1` (stereo unspecified) the Potency was inconclusive [activator, single point].
For `CCOC(=O)c1ccc(NC(=O)c2ccc(CN3CCc4ccccc4C3)cc2)cc1`, the Potency was inconclusive [inhibitor, partial curve].
In the case of `FC(F)(F)c1ccc(/C=N/n2c(COc3ccccc3)n[nH]c2=S)cc1`, the Potency is reported as “inactive”.
For `COc1ccc(NC(=O)c2cc3cccc(OC)c3oc2=Nc2ccc(C(=O)O)cc2)cc1OC`, the Potency was inconclusive [inhibitor, full curve].
In the case of `ClCc1nnc(-c2cc3c(s2)CCCC3)o1`, the Potency is reported as inconclusive [inhibitor, partial curve].
With `Cn1c(SCC(=O)c2ccc3c(c2)Cc2ccccc2-3)nnc1-c1cccc(N)c1` the Potency was inconclusive [inhibitor, partial curve].
In the case of `Cc1ccc(Cn2c(SCC(=O)N3CC(=O)Nc4ccccc43)nc3ccccc3c2=O)cc1`, the Potency is reported as inconclusive [inhibitor, single point].
For `O=C(Nc1nnc(C(F)(F)F)s1)C1COc2ccccc2O1` (stereo unspecified), the Potency was “inactive”.
For `CCOc1ccccc1Nc1nc(-c2sc(NC(=O)c3ccc([N+](=O)[O-])cc3)nc2C)cs1`, the Potency was inconclusive [inhibitor, partial curve].
In the case of `Cc1ccc(C(=O)Nn2c(N)c(S(=O)(=O)c3ccc(C)cc3)c3nc4ccccc4nc32)cc1`, the Potency is reported as inconclusive [inhibitor, single point].
In the case of `COc1ccc(CNC(=S)Nc2ccc(Br)cc2)cc1`, the Potency is reported as active: 11.2 µM.
With `Nn1cnnc1N/N=C/c1cc([N+](=O)[O-])c(Cl)cc1Cl` the Potency was inconclusive [inhibitor, single point].
In the case of `O=C(NCCOc1ccccc1)C1CCC(=O)N(Cc2ccc(Cl)cc2)C1` (stereo unspecified), the Potency is reported as “inactive”.
With `COc1ccc(OC)c(N/C(C)=C/C(=O)c2ccccc2)c1` the Potency was “inactive”.
In the case of `COc1ccc(N2C(=O)C(Cc3ccccc3)NC2=S)cc1` (stereo unspecified), the Potency is reported as “inactive”.
For `CN(CC(O)CON=C1c2ccccc2-c2ccccc21)S(=O)(=O)c1ccc(Br)cc1` (stereo unspecified), the Potency was inconclusive [inhibitor, single point].
In the case of `CC1(C)CC(=O)C/C(=N\NC(=S)NCc2ccccc2)C1`, the Potency is reported as inconclusive [inhibitor, single point].
In the case of `CC1CCCN(C(C(=O)NC2CCCCC2)c2cc3c(cc2[N+](=O)[O-])OCO3)C1` (stereo unspecified), the Potency is reported as inconclusive [inhibitor, partial curve, poor fit].
For `CCOc1ccc(C(=O)NCCc2ccc3c(c2)OCCO3)cc1`, the Potency was “inactive”.
For `COCCCNC(=S)NCCc1ccc(F)cc1`, the Potency was inconclusive [inhibitor, single point].
With `Cc1cc(/C=N/NC(=O)c2cc3ccccc3o2)c(C)n1C` the Potency was inconclusive [inhibitor, single point].
With `O=C1C2=CC[C@H]3C(=O)N(Cc4ccc5c(c4)OCO5)C(=O)[C@@H]3[C@@H]2[C@H](O)[C@@H]2O[C@H]12` the Potency was inconclusive [inhibitor, single point].
In the case of `CC(C)c1ccc(OCC(O)Cn2cnc3ccccc32)cc1` (stereo unspecified), the Potency is reported as inconclusive [inhibitor, single point].
With `COc1ccccc1NC(=O)Cn1cnc2c(cnn2-c2ccc(C)c(C)c2)c1=O` the Potency was “inactive”.
In the case of `CCC(=O)NC(=S)Nc1cccc(Cl)c1N1CCCCC1`, the Potency is reported as active: 5.01 µM.
